The campaign covered roughly 290,000 compounds. About 1,100 (0.38%) were called active. Inconclusive means that the source gave no clear call. Such entries were picked first, then a sample of the others. Calls come from the whole dose curve; as a rule, active = well fitted inhibition curve with a large enough effect; inconclusive = small, poorly fitted or top-dose-only effect, or another doubt; inactive = no such curve, though single readings can be large or run the other way. Potencies of inconclusive entries are doubtful fits and often do not repeat.
Molecular target: Pyruvate kinase (Leishmania mexicana) (UniProt Q27686)
Experiment: qHTS Assay for Inhibitors of Leishmania Mexicana Pyruvate Kinase (LmPK)
Conditions: purified LmPK, Kinase-Glo ATP luminescence, 1 h; activity change, negative = inhibition: at 57.5 µM (top of the series) unless noted
Source text: NIH Chemical Genomics Center [NCGC] Malcolm Walkinshaw, Hugh Morgan, Linda Gilmore University of Edinburgh, UK MLPCN Grant: 1 R03 MH085697-01 NCGC Assay Overview: Pyruvate kinase (L. Mexicana) (LmPK) enzyme was supplied as a highly purified (>95% pure) sulphate-free preparation from University of Edinburgh, UK and assayed for its ability to generate ATP from ADP using phosphoenolpyruvate (PEP) as a substrate. ATP generation was detected in a coupled reaction by luciferase-mediated luminescence, an ATP-dependent process. […] The enzyme was assayed at an intermediate level of activity to screen for both inhibitors and activators.
NCGC Assay Protocol Summary: Three uL of enzyme mix (kept on ice) in assay buffer (50 mM Imidazole pH7.2, 50 mM KCl, 7 mM MgCl2, 0.01% Tween 20, 0.05% BSA) containing PEP (0.5 mM final concentration) and LmPK (0.1 nM final concentration) was dispensed into white solid bottom 1,536 well microtiter plates. 23 nL of compound were delivered by a pin tool and 1 uL of ADP mix in assay buffer (r.t; 0.1 mM final ADP concentration) was added. Plates were incubated at room temperature for 1 hour. Two uL of detection mix (Kinase-Glo, Promega; at 4 degree Celsius protected from light) was added and luminescence read by a ViewLux (Perkin Elmer) at 1 second exposure/plate. Data were normalized to the uninhibited and AC100 inhibition (no enzyme). To monitor activation, the first column contained a five-fold concentration of LmPK (0.5 nM).
% is set by controls: 0 for no effect and ±100 for the full control effect; potency is the fitted concentration of half-maximal effect; tags give direction and shape of the fitted curve.

UniProt Q27686, sequence (Q27686 whole entry, looked up): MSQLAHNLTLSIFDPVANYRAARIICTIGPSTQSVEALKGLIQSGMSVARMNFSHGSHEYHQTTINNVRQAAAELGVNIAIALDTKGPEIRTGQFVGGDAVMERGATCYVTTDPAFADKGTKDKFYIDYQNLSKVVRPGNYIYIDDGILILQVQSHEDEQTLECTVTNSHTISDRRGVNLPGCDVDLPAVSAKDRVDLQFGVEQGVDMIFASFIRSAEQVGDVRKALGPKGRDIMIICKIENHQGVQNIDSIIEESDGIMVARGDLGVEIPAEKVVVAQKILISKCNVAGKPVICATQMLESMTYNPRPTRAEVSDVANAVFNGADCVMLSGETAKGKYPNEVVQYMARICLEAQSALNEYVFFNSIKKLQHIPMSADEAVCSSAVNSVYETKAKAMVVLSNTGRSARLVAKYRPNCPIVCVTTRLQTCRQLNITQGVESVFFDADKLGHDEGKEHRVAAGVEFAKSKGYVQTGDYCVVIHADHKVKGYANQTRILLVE

SMILES	Potency	activity change, negative = inhibition
CCN(CC)c1ccc(N=Cc2cc(Br)ccc2O)cc1	inconclusive: 10 µM [falling, partial curve]	
CSc1nc2nc(-c3ccccc3)cc(=O)n2[nH]1	inconclusive: 28.2 µM [falling, partial curve]	
COc1ccc(-c2nc3nc(C)cc(C)n3n2)cc1	inconclusive: 14.1 µM [falling, partial curve]	
Cc1cc(/C=N/Nc2nc(N)ncc2[N+](=O)[O-])c(C)n1-c1ccccc1F	inconclusive: 17.8 µM [falling, partial curve]	
O=Nc1c2cc(-c3ccccc3)[nH]nc-2c2ccccc12	inconclusive: 14.1 µM [falling, partial curve]	
Clc1ccccc1-c1nc(-c2ccncc2)no1	inconclusive: 14.1 µM [falling, partial curve]	
O=C(O)CSc1cc(NS(=O)(=O)c2cccc([N+](=O)[O-])c2)c2ccccc2c1O	active: 14.1 µM	
CCCCn1c(-c2csc3ccccc23)n[nH]c1=S	active: 14.1 µM	
c1ccc(-c2nnc(-c3ccccc3)o2)cc1	inconclusive: 11.2 µM [falling, partial curve]	
COc1nccnc1NS(=O)(=O)c1ccc(N=Cc2c(C)[nH]n(-c3ccc(Cl)cc3)c2=O)cc1	inconclusive: 25.1 µM [falling, single point]	
CC(=O)c1cccc(NC(=O)CSCc2ccc(Br)cc2)c1		inactive: 1.37%
COc1ncccc1-c1nnn(-c2ccccc2)n1	inconclusive: 14.1 µM [falling, partial curve]	
CCc1ccc(C(=O)Nc2nc3ccccc3[nH]2)cc1	inconclusive: 31.6 µM [falling, single point]	
CC1CCN(C(=O)Cn2c(=O)oc3ccccc32)CC1		inactive: -2.55%
Oc1ccc(C2C[C@H]3CC[C@@H]2C3)cc1O (stereo not given in full)	inconclusive: 1.78 µM [falling, partial curve]	
CCCc1ccc(/C=C2\C(=O)c3ccccc3C(O)=C2C(=O)OCC)cc1	inconclusive: 25.1 µM [falling, partial curve]	
O=C(NC(=O)c1c(F)cccc1F)Nc1ccccc1SC(F)F		inactive: -2.08%
O=C(N/N=C/C=C\c1cccc([N+](=O)[O-])c1)c1cccnc1		inactive: -1.48%
C=CC[n+]1ccc(/C=C2\C=Cc3cc(C)ccc3N2CC)c2ccccc21	inconclusive: 22.4 µM [falling, single point]	
CN(c1ccc(C(=O)Nc2ccc3c(c2)OCCO3)cc1)S(C)(=O)=O	inconclusive: 14.1 µM [falling, partial curve]	
COc1ccc(C(=O)Nc2ccc(N3CCOCC3)cc2)cc1OC	active: 15.8 µM	
CCOCCCN(Cc1ccco1)C(=O)c1cc2c(=O)[nH]c3ccc(C)cc3c2s1		inactive: 13.7%
c1ccc(-c2cnc(-c3ccccc3)nc2)cc1	inconclusive: 11.2 µM [falling, partial curve]	
Cc1ccc(CN=C2Nc3ccccc3CS2)cc1	inconclusive: 8.91 µM [falling, partial curve]	
O=c1[nH]c(=S)[nH]c(O)c1N=Nc1ccc2c(c1)OCO2	inconclusive: 15.8 µM [falling, partial curve]	

SMILES	Potency	activity change, negative = inhibition
COc1cc(N/N=C/c2ccc(N(C)C)cc2)ncn1	inconclusive: 14.1 µM [falling, partial curve]	
O=C(NC1CCCCCCC1)c1ccc2c(c1)OCO2	inconclusive: 28.2 µM [falling, single point]	
COC(=O)c1sc(NC(=O)c2ccoc2C)nc1C	active: 7.08 µM	
CCCCn1c(-c2ccoc2C)n[nH]c1=S	inconclusive: 28.2 µM [falling, single point]	
COc1ccccc1NS(=O)(=O)c1ccc(NC(=O)c2[nH]nc(OC)c2[N+](=O)[O-])cc1		inactive: -0.785%
Cc1ccccc1C(=O)Nc1ccc(N2CCCC2)cc1	inconclusive: 20 µM [falling, single point]	
CC(=O)c1sc(NC(=O)c2cccc(C)c2)nc1C	inconclusive: 15.8 µM [falling, partial curve]	
CC(C)c1ccc(NC(=O)Cn2nnc(C(=O)NCc3ccco3)c2N)cc1		inactive: 4.68%
CCOC(=O)c1csc(NC(=O)c2cc(=O)c3ccccc3o2)n1	inconclusive: 17.8 µM [falling, single point]	
O=c1c2c(-c3ccccc3)csc2nc2c3ccccc3c(NCCN3CCOCC3)nn12	inconclusive: 11.2 µM [falling, partial curve]	
COc1cccc(/C=C/C(=O)Nc2ccc3nc4n(c(=O)c3c2)CCCC4)c1OC		inactive: 18.7%
Cc1cccc(-n2c(C)n[nH]c2=S)c1C	inconclusive: 22.4 µM [falling, single point]	
CSc1ncccc1C(=O)OCC(=O)c1cc(C)n(CC2CCCO2)c1C (stereo not given)	inconclusive: 14.1 µM [falling, partial curve]	
O=C1CCCC(O)=C1N=Nc1ccc2c(c1)OCO2	inconclusive: 31.6 µM [falling, single point]	
Cc1ccccc1C(=O)Nc1ccc(Br)cn1	inconclusive: 25.1 µM [falling, partial curve]	
COc1ccc(C(=O)N/N=C\c2coc3ccccc3c2=O)cc1	inconclusive: 20 µM [falling, single point]	
Cc1ccn2cc(-c3ccc(Br)cc3)nc2c1	inconclusive: 15.8 µM [falling, partial curve]	
COc1ccc(-c2n[nH]c(=S)n2Cc2ccccc2)cc1	inconclusive: 31.6 µM [falling, single point]	
COc1ccc(-c2nnc(-c3cccs3)o2)cc1OC	inconclusive: 17.8 µM [falling, partial curve]	
N/C(=N/OC(=O)c1ccccc1F)c1nonc1N	active: 14.1 µM	
Cc1ccnc(NC(=O)/C=C/c2cccs2)c1	inconclusive: 15.8 µM [falling, partial curve]	
Cc1ccc(-n2c(CSc3nc(C)cc(C)n3)n[nH]c2=S)cc1	inconclusive: 17.8 µM [falling, partial curve]	
COc1cc2c(cc1OC)-c1n[nH]c(=S)n1C(C)(C)C2	active: 17.8 µM	
O=C(Nc1ccccn1)C1COc2ccccc2O1 (stereo not given)	inconclusive: 22.4 µM [falling, single point]	
C/C(=N\Nc1ncc(Cl)cc1Cl)c1ccccn1	inconclusive: 22.4 µM [falling, single point]	

SMILES	Potency	activity change, negative = inhibition
CC(C)(C)n1nnnc1C(c1ccncc1)N1CCN(c2ccc(O)cc2)CC1 (stereo not given)	inconclusive: 31.6 µM [falling, single point]	
CCOC(=O)CSC1=NC(=O)/C(=C\c2ccc(OC(C)=O)cc2)S1	inconclusive: 15.8 µM [falling, partial curve]	
O=C(N/N=C/c1ccccc1)c1ccco1	inconclusive: 25.1 µM [falling, partial curve]	
O=C(O)c1ccc(NC2=Nc3cccc4cccc2c34)cc1		inactive: 1.07%
Cc1ccccc1-c1nnc(-c2cccs2)o1	inconclusive: 28.2 µM [falling, single point]	
CSc1ccccc1NC(=O)Nc1ccccc1	inconclusive: 25.1 µM [falling, partial curve]	
Cc1nc(C(=O)NC2CCOCC2)sc1C1(C)CC(c2ccccc2)=NO1 (stereo not given)		inactive: 3.08%
CCOc1ccc(-c2nc3ccccc3c(=O)o2)cc1	inconclusive: 15.8 µM [falling, partial curve]	
S=C(NCCc1ccccc1)NCCN1CCOCC1		inactive: -1.78%
O=c1cc(CSc2ccc(Cl)cc2)[nH]c2[nH]n(-c3ccccc3)c(=O)c12		inactive: 0.257%
Cc1cc(C)n(CC(=O)NC2CCCc3c2cnn3-c2ccc(C)c(C)c2)n1 (stereo not given)		inactive: 3.64%
COc1ccc(C(=O)Nn2c(SCC(=O)NCC3CCCO3)nc3ccccc3c2=O)cc1 (stereo not given)	inconclusive: 20 µM [falling, partial curve]	
O=C(CSc1cccc2cccnc12)N/N=C/c1ccc(O)cc1		inactive: 0.795%
O=C(O/N=C/c1ccc2c(c1)OCO2)c1ccccc1Cl	inconclusive: 22.4 µM [falling, single point]	
C=C(C)Cn1c(-c2cccc([N+](=O)[O-])c2)n[nH]c1=S	inconclusive: 31.6 µM [falling, single point]	
[O-][n+]1c2ccccc2[n+]([O-])c2cc(O)ccc21	inconclusive: 14.1 µM [falling, partial curve]	
Cc1nn(Cc2ccc(Cl)cc2Cl)c(C)c1NC(=O)c1nn(C)cc1Cl		inactive: 1.76%
Cc1ccc(-n2[nH]c(C)c(/C=N/n3c(C)nc4ccccc4c3=O)c2=O)cc1	inconclusive: 28.2 µM [falling, partial curve]	
CCCCN(CCCNC(=O)CN1C(=O)COc2ccc(S(=O)(=O)N3CCC(C)CC3)cc21)Cc1ccccc1		inactive: 7%
CN=c1scc(-c2ccc(F)cc2)n1/N=C/c1ccc(O)c(O)c1	inconclusive: 4.47 µM [falling, full curve]	
CCn1c(-c2csc3ccccc23)n[nH]c1=S	active: 10 µM	
Cc1ccsc1/C=N/NC(=O)c1sccc1C	inconclusive: 14.1 µM [falling, partial curve]	
COc1ccc(/C=N/c2c(-c3ccco3)nc3ccccn23)cc1OC	inconclusive: 28.2 µM [falling, single point]	
Cc1cc(N2C(=O)C=CC2=O)c([N+](=O)[O-])cc1C	inconclusive: 28.2 µM [falling, single point]	
COc1cccc(C(=O)Nc2ccc(NC(C)=O)cc2)c1	inconclusive: 22.4 µM [falling, single point]	

Source: PubChem BioAssay AID1721 (National Center for Advancing Translational Sciences (NCATS), 2009)
